Test results from the supplement of paper PMC10369915.
The list shows a part of the results. Rule as the data show it: active = 3.2 or more and inactive = the rest. The signal is at background level for most entries.

Legend:
Assay in all cases: enrichment score (SH2-bound / input frequency) (ratio); bacterial display of known human phosphotyrosine sites (pTyr-Var adds point mutants) read by sequencing; higher = stronger binding; tyrosines were phosphorylated by kinases first
Details in all cases: peptide library: pTyr-Var
[1] = target: SHP2 C-SH2 domain E139D
[2] = target: SHP2 C-SH2 domain wild-type
[3] = target: SHP2 N-SH2 domain L43F
[4] = target: SHP2 N-SH2 domain T42A
[5] = target: SHP2 N-SH2 domain T52S
[6] = target: SHP2 N-SH2 domain wild-type
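Also: displayed peptides selected on beads carrying the immobilized SH2 domain, with library peptides lacking any tyrosine serving as negative controls.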

| Binder | enrichment score [1] | enrichment score [2] | enrichment score [3] | enrichment score [4] | enrichment score [5] | enrichment score [6] |
| --- | --- | --- | --- | --- | --- | --- |
| VAVVQYSGTGQ [COL6A1_Y878] | inactive: 0.933 | inactive: 0.706 | inactive: 1.26 | inactive: 0.845 | inactive: 1.1 | inactive: 0.989 |
| VAVVQYSGMGQ [COL6A1_Y878_T881M] | inactive: 0.798 | inactive: 0.693 | inactive: 1.35 | inactive: 0.949 | inactive: 1.17 | inactive: 1.04 |
| DGLALYTGSAL [COL6A3_Y524_S521L] | inactive: 0.717 | inactive: 0.915 | inactive: 0.877 | inactive: 0.682 | inactive: 0.641 | inactive: 1.01 |
| TSSAGYRAAEG [COL6A3_Y543] | inactive: 0.469 | inactive: 0.523 | inactive: 0.485 | inactive: 0.499 | inactive: 0.438 | inactive: 0.541 |
| MSSAGYRAAEG [COL6A3_Y543_T538M] | inactive: 0.584 | inactive: 0.522 | inactive: 0.591 | inactive: 0.538 | inactive: 0.543 | inactive: 0.555 |
| PATYTYDEYKK [COL8A2_Y648] | inactive: 0.644 | inactive: 0.54 | inactive: 0.681 | inactive: 0.59 | inactive: 0.373 | inactive: 0.531 |
| PATFTYDEFKK [COL8A2_Y648_YF] | inactive: 1.25 | inactive: 0.867 | inactive: 0.905 | inactive: 0.758 | inactive: 0.818 | inactive: 1.24 |
| FSLPAFMDRRD [COX4I1_Y38_Y38F] | inactive: 0.948 | inactive: 0.839 | inactive: 0.865 | inactive: 0.885 | inactive: 0.847 | inactive: 0.86 |
| DEIPLYLKGGV [COX7A2_Y44] | inactive: 0.676 | inactive: 0.582 | inactive: 0.731 | inactive: 0.511 | inactive: 0.638 | inactive: 0.706 |
| CLAKMYYSAVD [CP_Y539] | inactive: 1.03 | inactive: 0.815 | inactive: 0.767 | inactive: 0.75 | inactive: 0.718 | inactive: 0.95 |
| CLAKMYYSAVE [CP_Y539_D544E] | inactive: 1.01 | inactive: 1.18 | inactive: 1.03 | inactive: 0.935 | inactive: 0.914 | inactive: 1.42 |
| CLAKMYFSAVE [CP_Y539_D544E_YF] | inactive: 1.29 | inactive: 1.37 | inactive: 1.23 | inactive: 1.22 | inactive: 1.2 | inactive: 1.43 |
| KFGTNYRVGSS [CPO_Y278_YF] | inactive: 0.817 | inactive: 0.82 | inactive: 1.03 | inactive: 0.692 | inactive: 0.931 | inactive: 1.01 |
| TARREYMHSPS [CPOX_Y429_W427R] | inactive: 0.288 | inactive: 0.267 | inactive: 0.331 | inactive: 0.366 | inactive: 0.347 | inactive: 0.281 |
| LAVPLYKNGVK [CPS1_Y1069] | inactive: 0.99 | inactive: 0.725 | inactive: 0.903 | inactive: 0.782 | inactive: 0.896 | inactive: 0.733 |
| FVHDNYVIQRT [CPS1_Y1450_R1453Q] | inactive: 0.938 | inactive: 0.707 | inactive: 0.831 | inactive: 0.777 | inactive: 0.578 | inactive: 0.85 |
| FVHDNYVIWRT [CPS1_Y1450_R1453W] | inactive: 1.43 | inactive: 1.55 | inactive: 1.71 | inactive: 1.49 | inactive: 1.37 | inactive: 1.62 |
| KSLFHYRQYSA [CPS1_Y1491] | inactive: 0.322 | inactive: 0.315 | inactive: 0.417 | inactive: 0.52 | inactive: 0.422 | inactive: 0.528 |
| GVLKEYGVKVL [CPS1_Y529] | inactive: 1.2 | inactive: 1.01 | inactive: 1.15 | inactive: 1.18 | inactive: 1.01 | inactive: 1.01 |

| Binder | enrichment score [1] | enrichment score [2] | enrichment score [3] | enrichment score [4] | enrichment score [5] | enrichment score [6] |
| --- | --- | --- | --- | --- | --- | --- |
| MIRSAYALGGL [CPS1_Y590] | inactive: 0.498 | inactive: 0.495 | inactive: 0.575 | inactive: 0.537 | inactive: 0.593 | inactive: 0.624 |
| MIRSTYALGGL [CPS1_Y590_A589T] | inactive: 1 | inactive: 0.712 | inactive: 0.843 | inactive: 0.69 | inactive: 0.877 | inactive: 0.83 |
| MIHSAYALGGL [CPS1_Y590_R587H] | inactive: 0.915 | inactive: 0.823 | inactive: 0.819 | inactive: 0.882 | inactive: 0.829 | inactive: 0.954 |
| EPSLVYMVTKI [CPS1_Y768_D767V] | inactive: 0.674 | inactive: 0.952 | inactive: 0.605 | inactive: 0.536 | inactive: 0.827 | inactive: 0.893 |
| IEKLPYIDKWF [CPS1_Y872_T871P] | inactive: 1.02 | inactive: 1.05 | inactive: 1.17 | inactive: 0.964 | inactive: 1.07 | inactive: 1.09 |
| DEWFLYKMRDI [CPS1_Y879_K875E] | inactive: 0.949 | inactive: 0.956 | inactive: 0.811 | inactive: 0.721 | inactive: 0.685 | inactive: 0.97 |
| LDMSQYFRLFN [CPT2_Y217] | inactive: 1.09 | inactive: 1.66 | inactive: 1.84 | inactive: 1.23 | inactive: 1.47 | inactive: 1.34 |
| LGMSQYFRLFN [CPT2_Y217_D213G] | inactive: 1.64 | inactive: 2.39 | inactive: 1.67 | inactive: 1.51 | inactive: 1.24 | inactive: 1.4 |
| CPASVYTKRCS [CPT2_Y508_R503C] | inactive: 0.579 | inactive: 0.493 | inactive: 0.638 | inactive: 0.517 | inactive: 0.525 | inactive: 0.559 |
| LNPDGYEKAYE [CPXM2_Y427] | inactive: 0.668 | inactive: 0.701 | inactive: 0.577 | inactive: 0.415 | inactive: 0.764 | inactive: 0.736 |
| LNPDGYKKAYE [CPXM2_Y427_E428K] | inactive: 0.783 | inactive: 0.588 | inactive: 0.395 | inactive: 0.576 | inactive: 0.42 | inactive: 0.621 |
| LNPDGYEKAFE [CPXM2_Y427_YF] | inactive: 0.704 | inactive: 0.794 | inactive: 0.557 | inactive: 0.938 | inactive: 0.757 | inactive: 0.734 |
| PEEKVYLSRGD [CRACR2A_Y141_H136P] | inactive: 0.56 | inactive: 0.625 | inactive: 0.538 | inactive: 0.564 | inactive: 0.449 | inactive: 0.788 |
| NCLRQYVAGRF [CRB1_Y711_E710Q] | inactive: 0.389 | inactive: 0.35 | inactive: 0.507 | inactive: 0.581 | inactive: 0.287 | inactive: 0.467 |
| NCLRVYVAGRF [CRB1_Y711_E710V] | inactive: 1.04 | inactive: 0.656 | inactive: 0.421 | inactive: 0.604 | inactive: 0.806 | inactive: 0.504 |
| LENSTYQFICV [CRB1_Y760_R764C_YF] | inactive: 0.779 | inactive: 1.05 | inactive: 1 | inactive: 0.838 | inactive: 0.829 | inactive: 1.17 |
| LENSTYQYIHV [CRB1_Y760_R764H] | inactive: 0.764 | inactive: 1.12 | inactive: 0.871 | active: 3.33 | inactive: 0.643 | inactive: 0.651 |
| LENSTYQFIHV [CRB1_Y760_R764H_YF] | inactive: 0.975 | inactive: 0.77 | inactive: 1.22 | inactive: 0.835 | inactive: 1.02 | inactive: 1.39 |
